Among all 45,000 compounds or so, about 200 (0.44%) were called active. Roughly 7% stayed inconclusive and do not appear here. Calls come from the whole dose curve; as a rule, active = well fitted activation curve with a large enough effect; inconclusive = small, poorly fitted or top-dose-only effect; inactive = no such curve, though single readings can be large or run the other way. The list shows a part of the results.
Assay: qHTS of TDP-43 Inhibitors: NCGC Sytravon Library Screen; note: 0% is about no effect; nearly all actives have a fitted effect of over 55% in size
Details: yeast TDP-43 toxicity rescue, BacTiter-Glo growth, 24 h; series mostly up to 46.1 µM; growth rescue (activation): at the top concentration
Method in brief: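 TDP-43-expressing yeast, pregrown in raffinose, seeded at OD600 0.02 in galactose medium with compound for 24 hr at 30 deg C. Growth read by BacTiter-Glo luminescence, so rescue of toxicity appears as activation.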

| Compound | growth rescue (activation) |
| --- | --- |
| O=S(=O)(Cc1ccccc1)N1CCNCC1 | inactive: -7.63% |
| CN(C(=O)COC(=O)c1ccc2c(=O)n3c(nc2c1)CCC3)c1ccccc1 | inactive: 15.7% |
| COc1ccc(S(=O)(=O)Nc2ccc3c(c2)n(C)c(=O)n3C)cc1C | inactive: 2.63% |
| COCc1cc(C)[nH]c(=O)c1C(=O)NC12CC3CC(CC(C3)C1)C2 | inactive: 0.728% |
| CCCCCOC(=O)Cn1c(N2CCCCCC2)nc2c1c(=O)[nH]c(=O)n2C | inactive: -15.3% |
| O=C(COC(=O)c1cnccn1)NCCc1ccc(Cl)cc1Cl | inactive: 8.57% |
| CCCCNC(=S)NC(=O)c1ccccc1Br | inactive: 20.2% |
| CCOC(=O)C1(C)CCN1C(=O)c1ccc(C(=O)OC)cc1 (configuration not stated) | inactive: 5.24% |
| O=[N+]([O-])c1cccc(/C=N/N2CCN(c3ccccn3)CC2)c1 | inactive: 24% |
| CC(=O)c1ccc(N2CCN(C(=O)[C@H](C)NC(=O)c3ccccc3Cl)CC2)cc1 | inactive: 13.7% |
| CC(=O)Nc1ccc(NC(=S)NC(=O)/C=C/c2ccco2)cc1 | inactive: 7.24% |
| O=C1CC(c2cc(F)ccc2F)c2cc3c(cc2N1)CCC3 (configuration not stated) | inactive: -35.4% |
| COc1ccc(OC)c(S(=O)(=O)N2CCC(C(=O)NC3CCCC3)CC2)c1 | inactive: 0.997% |
| COc1ccccc1N(CC(=O)NCc1ccccc1)C(=O)CCC(=O)Nc1nccs1 | inactive: -6.82% |
| O=C(/C=C/c1ccco1)Nc1ccc(S(=O)(=O)N2CCOCC2)cc1 | inactive: 5.58% |
| COc1ccc(NC(=O)CSc2nnc(-c3ccncc3)n2C)cc1 | inactive: -15.2% |
| COC(=O)c1c(C(=O)OC)c(-c2ccc(C)cc2)n2c1CS(=O)C2 (configuration not stated) | inactive: 6.38% |
| O=C(CSc1ccc(Br)c2cccc(Cl)c12)Nc1ccc(S(=O)(=O)Nc2nccs2)cc1 | inactive: 3.19% |
| COc1ccc(NC(=O)CSc2nnc(-c3cccnc3)n2Cc2ccco2)c(OC)c1 | inactive: -13.8% |
| Cc1ccc(S(=O)(=O)N2CCN(CC(=O)N/N=C/c3ccco3)CC2)cc1 | inactive: -1.91% |
| COc1ccc(Nc2cc(=O)n(C3CCCCC3)c(=O)[nH]2)c(OC)c1 | inactive: 12.6% |
| CCN(C(=O)COC(=O)c1cc(S(=O)(=O)N2CCOCC2)c(Cl)cc1Cl)C1CCS(=O)(=O)C1 (configuration not stated) | inactive: 0.117% |
| COc1ccc(CNC(=O)CCNS(=O)(=O)c2ccc(Cl)cc2)cc1 | inactive: 11.5% |

| Compound | growth rescue (activation) |
| --- | --- |
| O=C(O)c1ccc(/C=C/C(=O)c2ccc3c(c2)OCCCO3)cc1 | inactive: 21% |
| CS(=O)(=O)N1CCN(c2ccc([N+](=O)[O-])c(NCc3ccc(Cl)cc3)c2)CC1 | inactive: -12.1% |
| CC1(C)CC(=O)C(C=Nc2ccc(NC3=C(C#N)C(=O)CC(C)(C)C3)cc2)=C(O)C1 | inactive: -4.67% |
| O=C(CSc1nc2nn(-c3ccccc3)c(=O)c-2c2n1CCCCC2)Nc1ccc(OC(F)F)cc1 | inactive: 7.44% |
| CSc1ccc(C(=O)C2CCCN(Cc3cccc4nccnc34)C2)cc1 (configuration not stated) | inactive: 13.9% |
| COc1ccc(C2c3c(ccc4ccccc34)Oc3ncn4nc(-c5ccco5)nc4c32)cc1OC (configuration not stated) | inactive: 16.8% |
| O=C(Nc1cccc(S(=O)(=O)N2CCOCC2)c1)c1cc2ccccc2o1 | inactive: -11.5% |
| COC(=O)c1ccc(-c2nc(O)c(C)s2)cc1 | inactive: 8.82% |
| C=C(C)CN1C(=O)C2(OCCO2)c2ccccc21 | inactive: -3.51% |
| COc1ccccc1NC(=O)C1CCN(S(=O)(=O)c2cccc3nonc23)CC1 | inactive: 5.86% |
| COc1ccc(N(C(=O)CNC(=O)c2ccco2)C(C(=O)NC2CCCCC2)c2cccnc2)cc1 (configuration not stated) | inactive: 6.08% |
| Cc1cc(C)nc(N/C(=N/S(=O)(=O)Cc2ccccc2)Nc2ccccc2)n1 | inactive: -5.29% |
| C=C(C)CSc1nc2sc3c(c2c(=O)n1Cc1ccccc1)CC(C)(CC)OC3 (configuration not stated) | inactive: 1.46% |
| Cc1ccccc1N(CC(=O)NCc1ccccc1)C(=O)CCC(=O)Nc1nccs1 | inactive: -2.5% |
| COc1ccc(C(=O)OCC(=O)Nc2cccc(C(C)=O)c2)c(OC)c1OC | inactive: -7.07% |
| COc1ccc(CNC(=O)C(Cc2ccccc2)n2cccc2)cc1 (configuration not stated) | inactive: 15.1% |
| O=C(COC(=O)C1COc2ccccc2O1)NC1CCCCC1 (configuration not stated) | inactive: 15.2% |
| CCN(C(=S)Nc1cccc(C)c1)c1ccccc1 | inactive: 25.8% |
| COc1ccc(/C=C(\NC(=O)c2ccco2)C(=O)NCc2ccco2)cc1 | inactive: -0.0375% |
| CCOc1cc(N2CCCC2)ccc1[N+](=O)[O-] | inactive: 17.5% |
| CCCCn1nc(CC(=O)NCCN(CC)CC)c2ccccc2c1=O | inactive: 1.21% |
| CC(=O)Nc1ccc(C2=NNC(=NCC3CCCO3)SC2)cc1 (configuration not stated) | inactive: 8.51% |
| Cn1c(CC(=O)Nc2ccccc2F)nnc1SCC(=O)Nc1nncs1 | inactive: -5.58% |

| Compound | growth rescue (activation) |
| --- | --- |
| COC(=O)CCc1sc(Nc2ccc(Br)cc2)nc1-c1ccc(OC)cc1 | inactive: 29.9% |
| CCOC(=O)c1c(C)n(CC(O)CN(C)C)c2cc(Br)c(OC)cc12 (configuration not stated) | inactive: -3.44% |
| OC(COCC1COc2ccccc2O1)CN1CCN(c2ccccn2)CC1 (configuration not stated) | inactive: 9.63% |
| CN1CCN(Cc2nc3ccccc3c(=O)n2Cc2nc(-c3ccc([N+](=O)[O-])cc3)cs2)CC1 | inactive: -17.4% |
| O=C(CSc1nc2ccccc2s1)NNC(=S)Nc1ccc(Br)cc1 | inactive: 41.5% |
| CCOc1cc(C2C3=C(CCCC3=O)N(C)C3=C2C(=O)CCC3)cc(Cl)c1O | inactive: 6.55% |
| NC(=O)C1Cc2ccccc2CN1S(=O)(=O)c1ccc(Cl)s1 (configuration not stated) | inactive: 8.91% |
| Cc1cccc(C(=O)Nc2cccc(OCC(=O)O)c2)c1 | inactive: 0.0277% |
| O=C(COC(=O)c1ccc(O)cc1)Nc1ccc2c(c1)OCO2 | inactive: 8.01% |
| O=C(Nc1nnc([C@H]2C[C@H](O)[C@@H](CO)O2)s1)Nc1cccc(Cl)c1Cl | inactive: 10.3% |
| C=CCn1c(O)c(N=O)c2cc(C)ccc21 | inactive: 13.5% |
| Cn1cccc1/C=N/N1CCN(Cc2ccc(Cl)cc2)CC1 | inactive: 0.628% |
| COc1ccc(CNC(=O)c2sc3nc4n(c(=O)c3c2C)CCCC4)cc1 | inactive: 17.3% |
| Cc1cc(C(=O)NC2CCCc3c2cnn3-c2ccccc2F)nc(C)n1 (configuration not stated) | inactive: 5.34% |
| Cc1ccc(C2C(C(=O)c3cc4ccccc4o3)=C(O)C(=O)N2c2cc(C)on2)cc1 (configuration not stated) | inactive: -7.13% |
| Cc1cc(C)n(CC(=O)N/N=C/c2ccc([N+](=O)[O-])s2)n1 | inactive: -73% |
| O=C(Cc1n[nH]c(=O)[nH]c1=O)N/N=C/c1cccc(Cl)c1 | inactive: 20.5% |
| Cn1c(N)c(C(=O)COC(=O)C2CCN(S(=O)(=O)c3cccs3)CC2)c(=O)n(C)c1=O | inactive: -21% |
| COc1cccc(/C=C2/NC(=O)N(CC(=O)Nc3ccc(C)cc3)C2=O)c1OCc1cccc(C(=O)O)c1 | inactive: -3.99% |
| O=C(NC(=S)NCC1CCCO1)c1ccc(Br)o1 (configuration not stated) | inactive: 25.3% |
| COc1cc(/C=N/NC(=O)c2nonc2C)ccc1O | inactive: -3.15% |
